Test results reported in the supplement of paper PMC3334620.
Whole data set: some 33,000 sequences, median “E-score (-0.5 to 0.5)” near -0.011, cut for the highest 2% near 0.28. This is one part of the list.

molecular target: T1, Gcr1 (UniProt P07261); experiment: PBM E-score (8-mer binding enrichment) (E-score (-0.5 to 0.5)); higher = stronger / more preferred TF binding; most listed sequences are background and not binding sites; conditions: protein concentration: 100 nM; construct: GST-full length
T1 sequence: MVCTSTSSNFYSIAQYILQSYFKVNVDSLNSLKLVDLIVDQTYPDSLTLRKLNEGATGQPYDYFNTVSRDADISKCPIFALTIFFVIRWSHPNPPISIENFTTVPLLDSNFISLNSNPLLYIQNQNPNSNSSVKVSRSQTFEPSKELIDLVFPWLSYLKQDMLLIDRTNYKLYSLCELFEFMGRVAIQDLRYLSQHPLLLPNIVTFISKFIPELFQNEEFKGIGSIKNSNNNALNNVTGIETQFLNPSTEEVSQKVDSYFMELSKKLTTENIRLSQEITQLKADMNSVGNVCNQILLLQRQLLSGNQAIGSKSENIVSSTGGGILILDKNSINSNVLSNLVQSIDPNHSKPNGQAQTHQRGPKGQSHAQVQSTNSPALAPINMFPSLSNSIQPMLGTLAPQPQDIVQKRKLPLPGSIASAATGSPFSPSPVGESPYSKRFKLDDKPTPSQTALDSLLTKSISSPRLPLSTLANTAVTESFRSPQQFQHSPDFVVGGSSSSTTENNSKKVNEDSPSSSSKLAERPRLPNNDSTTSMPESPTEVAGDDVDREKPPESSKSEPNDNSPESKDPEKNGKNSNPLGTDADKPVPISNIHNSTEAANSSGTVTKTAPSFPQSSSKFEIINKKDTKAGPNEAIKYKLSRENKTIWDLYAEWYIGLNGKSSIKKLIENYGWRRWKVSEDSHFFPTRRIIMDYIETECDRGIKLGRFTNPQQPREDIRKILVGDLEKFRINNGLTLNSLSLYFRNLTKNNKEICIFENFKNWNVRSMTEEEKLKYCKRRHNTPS
Description: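 Universal 'all 10-mer' protein binding microarrays (Agilent AMADID 015681) probed with GST-tagged S. cerevisiae TFs (full-length or DBD) made by in vitro transcription/translation (PURExpress), about 100-200 nM. Bound TF was detected with fluorescent anti-GST. Each ungapped 8-mer (which stands for itself and its reverse complement) is scored by the PBM enrichment score (E-score), a modified Wilcoxon-Mann-Whitney statistic from -0.5 to +0.5, computed with the Universal PBM Analysis Suite. Scale: above 0.35 generally sequence-specific binding.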

Sequence | PBM E-score
AAACGCGA | 0.0977
ATCGCCAT | 0.0406
ATCCGCTC | 0.0142
GGCTACTA | 0.219
CTCGATGC | 0.0719
CATATCTC | -0.117
CACTCCGC | -0.03
ACTTTCAG | 0.146
GCACTCCA | 0.0798
GCCGAGAC | -0.178
CAGACAGA | 0.105
CATCCCAA | 0.157
GGTACGAC | 0.0145
ACGATCAT | -0.153
GTCGGCAC | -0.0231
ACGAATGC | 0.0335
ACTTTTCA | 0.0489
CCACTGGG | 0.0562
CCTTTGTA | -0.145
AGGCAATC | -0.245
AGCCCAAT | 0.0294
ATCGCTTG | -0.125
CGGGATCA | 0.245
AAGTACGT | 0.0204
CAGGGTAA | -0.0675

Sequence | PBM E-score
CCTACTAG | -0.0738
CAGGATCA | -0.179
CGCGGACC | -0.0237
GGTCAAGA | -0.126
AGTGGATC | 0.286
ATATGGCG | 0.0803
CGGACATC | -0.115
CGCCGAAA | 0.0678
TATGGAAA | 0.11
CACGTGAA | -0.183
AGCACACG | 0.0528
AAAATAAC | 0.0829
CGCAAGAG | -0.122
ACGGTACT | -0.17
GGATAGAC | -0.167
GGGGCTAC | -0.0272
ACCTACAT | 0.0339
AAACACAC | 0.115
AAGCGATC | -0.135
TAATCCTA | -0.0173
AACATGAT | -0.0565
CACGAACC | 0.0284
CAAGAAGA | 0.354
AAGAGTGT | -0.0692
AAAACCCG | 0.108

Sequence | PBM E-score
CTATTCAC | 0.144
CAGCAATC | -0.0724
TGGTACCA | 0.0139
ACGACATG | -0.0755
ACATCACT | 0.0558
CATCAACG | 0.00203
GATAGGAC | -0.026
GGGTTAGA | -0.142
CTGACAGC | 0.0553
CTCGCACA | -0.0353
GCTGGGGA | -0.145
GCATTACA | -0.0224
CAAAAACC | 0.115
GGCCAAGA | -0.0957
CGTGAGAG | -0.241
CCCTGCAG | -0.00869
CCTTCACG | -0.0299
AACTAAGT | 0.0546
CGTTTTGC | 0.0543
ATGTGTCC | -0.156
GGCTGGAA | -0.0155
CCAAAGTC | 0.0913
ACGAGTTG | 0.0727
ACGCGTTA | -0.0814
GTTTATCA | 0.103

Sequence | PBM E-score
ACCGAGCA | -0.142
ACTCGCCA | -0.204
ATCACCGC | 0.00572
AGTTAGAT | -0.153
AGAGACTG | -0.163
GGAATGCA | 0.129
CGCGCGGA | -0.0886
CTCGCCTC | -0.252
CTGCTCGC | -0.089
CTGGATAC | 0.135
CTTAGAAA | 0.0884
GGTTAGAC | -0.16
AACCTCGG | -0.05
GGGCGAAA | -0.0628
TAGCAGGA | -0.0539
AAGTTCTG | 0.00543
CAGAGACC | -0.036
AATAGAAG | 0.206
ATTCTGCC | -0.0536
ACGTAATA | 0.0685
GGCCCTTA | -0.0164
CTCTTCGC | -0.103
CAGGGGAG | 0.191
CGGTTACG | 0.063
CACTTAGG | 0.0326

Sequence | PBM E-score
ATTATAGA | 0.11
CTGAAGCA | -0.171
ACAAAAGG | -0.0382
CCGCATCC | 0.31
TAGCCTGA | -0.232
CTACCCAG | -0.0746
GCAACTCA | -0.0076
ACAATAAC | 0.117
CCGGCGAC | 0.0114
AGGGTTCC | 0.312
ACTAGAAC | 0.096
ATGTGAGG | -0.0741
GAATTTTA | 0.142
AGGGGGAT | -0.101
CTCATAGC | -0.0196
ACTTGCCA | -0.0232
AACACGAT | 0.153
AATCGCAC | -0.198
ATTGGGTA | 0.0705
GAAAACGC | -0.167
CCACAGAA | -0.0106
GATCGATA | -0.107
GGTACATA | 0.0063
ATTTATTC | 0.0157
GTGCACAC | -0.273

Sequence | PBM E-score
CAACAAAC | -0.031
TAGCCCAA | 0.0287
GAACTATC | -0.0331
CAGAACCG | 0.106
CTAATCCA | 0.153
ATAGCGCG | -0.0481
CCGCCACC | 0.0145
ACTCTGCG | 0.0871
ACACTCTG | -0.0677
ATGCGGAC | -0.207
CGTCAATA | 0.0371
ACAGTGAC | -0.204
CATCGGCG | -0.0746
TTCGCCAA | 0.0203
CTGGTACC | 0.121
GCTTCTCC | 0.27
AGCACTGC | -0.377
AAGTCAGC | 0.0011
AATTTCGG | 0.129
ACTGTCCT | -0.18
AAATTTTG | 0.088
AATACCAC | 0.097
ATTGCCAG | -0.0225
ATAGTACC | -0.0805
GCATAAGA | -0.0473

Sequence | PBM E-score
CTCGGCTA | -0.0839
CTCTGGAC | 0.0684
AGACTCGA | -0.032
ATTTGGCG | 0.175
GGTACCAC | 0.0105
AGGCCGAC | -0.162
TTGGCCAA | -0.203
AGCACAGC | -0.0849
AAGAGTAT | -0.118
TCGCTAGA | -0.00814
AAGGTTCA | -0.179
TGGCTTAA | 0.0227
CAGAACAC | -0.107
TAACTCTA | -0.0602
GCGCTAGA | -0.0867
CCTGTGGC | 0.14
AAGCCTGG | -0.107
ATGGATCA | -0.201
AACAGGCT | 0.0848
CACAAGAC | 0.0989
CATATCCA | -0.129
CTGTCCGA | -0.154
